Some of the results follow.
Assays:
Assay in all cases: glycan array binding signal (z-score within array); higher = stronger binding
Conditions in all cases: glycan notation: IUPAC condensed, linker removed
Fuc(a1-2)Gal = target: Fuc(a1-2)Gal
In short: (§1)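 Arrays were curated from the Consortium for Functional Glycomics database, 3228 in total, and kept only where the protein sequence was available. Binding is expressed as a within-array Z-score. This score was averaged across arrays of the same protein sequence at different concentrations or buffers and across linkers, and negative values can be read as non-binding.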

Fuc(a1-2)Gal(b1-3)GalNAc = target: Fuc(a1-2)Gal(b1-3)GalNAc
In short: as §1

[1] = target: Fuc(a1-2)Gal(b1-3)GalNAc(a1-3)[Fuc(a1-2)]Gal(b1-4)Glc
In short: as §1

[2] = target: Fuc(a1-2)Gal(b1-3)GalNAc(a1-3)[Fuc(a1-2)]Gal(b1-4)GlcNAc
In short: as §1

[3] = target: Fuc(a1-2)Gal(b1-3)GalNAc(b1-3)Gal
In short: as §1

[4] = target: Fuc(a1-2)Gal(b1-3)GalNAc(b1-3)Gal(a1-4)Gal(b1-4)Glc
In short: as §1

[5] = target: Fuc(a1-2)Gal(b1-3)GalNAc(b1-4)[Neu5Ac(a2-3)]Gal(b1-4)Glc
In short: as §1

Fuc(a1-2)Gal(b1-3)GlcNAc = target: Fuc(a1-2)Gal(b1-3)GlcNAc
In short: as §1

[6] = target: Fuc(a1-2)Gal(b1-3)GlcNAc(b1-2)Man(a1-3)[Fuc(a1-2)Gal(b1-3)GlcNAc(b1-2)Man(a1-6)]Man(b1-4)GlcNAc(b1-4)GlcNAc
In short: as §1

[7] = target: Fuc(a1-2)Gal(b1-3)GlcNAc(b1-2)Man(a1-3)[Fuc(a1-2)Gal(b1-3)GlcNAc(b1-2)Man(a1-6)]Man(b1-4)GlcNAc(b1-4)[Fuc(a1-6)]GlcNAc
In short: as §1

[8] = target: Fuc(a1-2)Gal(b1-3)GlcNAc(b1-3)Gal(b1-4)Glc
In short: as §1

[9] = target: Fuc(a1-2)Gal(b1-3)GlcNAc(b1-3)GalNAc
In short: as §1

[10] = target: Fuc(a1-2)Gal(b1-3)GlcNAc(b1-3)[Fuc(a1-2)Gal(b1-3)GlcNAc(b1-6)]GalNAc
In short: as §1

[11] = target: Fuc(a1-2)Gal(b1-3)GlcNAc(b1-3)[Fuc(a1-3)[Gal(b1-4)]GlcNAc(b1-6)]Gal(b1-4)Glc
In short: as §1

[12] = target: Fuc(a1-2)Gal(b1-3)GlcNAc(b1-3)[Gal(b1-4)GlcNAc(b1-6)]Gal(b1-4)Glc
In short: as §1

[13] = target: Fuc(a1-2)Gal(b1-3)GlcNAc(b1-3)[Neu5Ac(a2-6)Gal(b1-4)GlcNAc(b1-6)]Gal(b1-4)Glc
In short: as §1

[14] = target: Fuc(a1-2)Gal(b1-3)GlcNAc6S
In short: as §1

[15] = target: Fuc(a1-2)Gal(b1-3)[Fuc(a1-4)]GlcNAc
In short: as §1

[16] = target: Fuc(a1-2)Gal(b1-3)[Fuc(a1-4)]GlcNAc(b1-2)Man(a1-3)[Fuc(a1-2)Gal(b1-3)[Fuc(a1-4)]GlcNAc(b1-2)Man(a1-3)]Man(b1-4)GlcNAc(b1-4)GlcNAc
In short: as §1

[17] = target: Fuc(a1-2)Gal(b1-3)[Fuc(a1-4)]GlcNAc(b1-2)Man(a1-3)[Fuc(a1-2)Gal(b1-3)[Fuc(a1-4)]GlcNAc(b1-2)Man(a1-6)]Man(b1-4)GlcNAc(b1-4)GlcNAc
In short: as §1

[18] = target: Fuc(a1-2)Gal(b1-3)[Fuc(a1-4)]GlcNAc(b1-2)Man(a1-3)[Fuc(a1-2)Gal(b1-3)[Fuc(a1-4)]GlcNAc(b1-2)Man(a1-6)]Man(b1-4)GlcNAc(b1-4)[Fuc(a1-6)]GlcNAc(b1-4)[Fuc(a1-6)]GlcNAc
In short: as §1

[19] = target: Fuc(a1-2)Gal(b1-3)[Fuc(a1-4)]GlcNAc(b1-3)[Fuc(a1-3)[Gal(b1-4)]GlcNAc(b1-6)]Gal(b1-4)Glc
In short: as §1

[20] = target: Fuc(a1-2)Gal(b1-3)[Fuc(a1-4)]GlcNAc(b1-3)[Gal(b1-4)GlcNAc(b1-6)]Gal(b1-4)Glc
In short: as §1

[21] = target: Fuc(a1-2)Gal(b1-4)Fuc(a1-3)]GlcNAc(b1-2)Man(a1-3)[Fuc(a1-2)Gal(b1-4)[Fuc(a1-3)]GlcNAc(b1-2)Man(a1-6)]Man(b1-4)GlcNAc(b1-4)GlcNAc
In short: as §1

Fuc(a1-2)Gal(b1-4)Glc = target: Fuc(a1-2)Gal(b1-4)Glc
In short: as §1

Fuc(a1-2)Gal(b1-4)Glc6S = target: Fuc(a1-2)Gal(b1-4)Glc6S
In short: as §1

Fuc(a1-2)Gal(b1-4)GlcNAc = target: Fuc(a1-2)Gal(b1-4)GlcNAc
In short: as §1

[22] = target: Fuc(a1-2)Gal(b1-4)GlcNAc(b1-2)Man
In short: as §1

[23] = target: Fuc(a1-2)Gal(b1-4)GlcNAc(b1-2)Man(a1-3)[Fuc(a1-2)Gal(b1-4)GlcNAc(b1-2)Man(a1-6)]Man(b1-4)GlcNAc(b1-4)GlcNAc
In short: as §1

[24] = target: Fuc(a1-2)Gal(b1-4)GlcNAc(b1-2)Man(a1-3)[Fuc(a1-2)Gal(b1-4)GlcNAc(b1-2)Man(a1-6)]Man(b1-4)GlcNAc(b1-4)[Fuc(a1-6)]GlcNAc
In short: as §1

B1: Siglec-F (Mus musculus), Q920G3 (protein)
chain: MRWAWLLPLLWAGCLATDGYSLSVTGSVTVQEGLCVFVACQVQYPNSKGPVFGYWFREGANIFSGSPVATNDPQRSVLKEAQGRFYLMGKENSHNCSLDIRDAQKIDTGTYFFRLDGSVKYSFQKSMLSVLVIALTEVPNIQVTSTLVSGNSTKLLCSVPWACEQGTPPIFSWMSSALTSLGHRTTLSSELNLTPRPQDNGTNLTCQVNLPGTGVTVERTQQLSVIYAPQKMTIRVSWGDDTGTKVLQSGASLQIQEGESLSLVCMADSNPPAVLSWERPTQKPFQLSTPAELQLPRAELEDQGKYICQAQNSQGAQTASVSLSIRSLLQLLGPSCSFEGQGLHCSCSSRAWPAPSLRWRLGEGVLEGNSSNGSFTVKSSSAGQWANSSLILSMEFSSNHRLSCEAWSDNRVQRATILLVSGPKVSQAGKSETSRGTVLGAIWGAGLMALLAVCLCLIFFTVKVLRKKSALKVAATKGNHLAKNPASTINSASITSSNIALGYPIQGHLNEPGSQTQKEQPPLATVPDTQKDEPELHYASLSFQGPMPPKPQNTEAMKSVYTEIKIHKC
**Q.** Which results are given for B1?
**A.** glycan array binding signal (z-score) (Fuc(a1-2)Gal): -0.118; glycan array binding signal (z-score) (Fuc(a1-2)Gal(b1-3)GalNAc): -0.13; glycan array binding signal (z-score) [1]: -0.098; glycan array binding signal (z-score) [2]: -0.114; glycan array binding signal (z-score) [3]: -0.124; glycan array binding signal (z-score) [4]: -0.117; glycan array binding signal (z-score) [5]: -0.122; glycan array binding signal (z-score) (Fuc(a1-2)Gal(b1-3)GlcNAc): -0.119; glycan array binding signal (z-score) [6]: -0.1; glycan array binding signal (z-score) [7]: -0.079; glycan array binding signal (z-score) [8]: -0.122; glycan array binding signal (z-score) [9]: -0.126; glycan array binding signal (z-score) [10]: -0.142; glycan array binding signal (z-score) [11]: -0.088; glycan array binding signal (z-score) [12]: -0.126; glycan array binding signal (z-score) [13]: -0.115; glycan array binding signal (z-score) [14]: -0.074; glycan array binding signal (z-score) [15]: -0.132; glycan array binding signal (z-score) [16]: -0.076; glycan array binding signal (z-score) [17]: -0.079; glycan array binding signal (z-score) [18]: -0.114; glycan array binding signal (z-score) [19]: -0.122; glycan array binding signal (z-score) [20]: -0.104; glycan array binding signal (z-score) [21]: 0.032; glycan array binding signal (z-score) (Fuc(a1-2)Gal(b1-4)Glc): -0.101; glycan array binding signal (z-score) (Fuc(a1-2)Gal(b1-4)Glc6S): -0.111; glycan array binding signal (z-score) (Fuc(a1-2)Gal(b1-4)GlcNAc): -0.119; glycan array binding signal (z-score) [22]: -0.138; glycan array binding signal (z-score) [23]: 0.132; glycan array binding signal (z-score) [24]: -0.123

Source: the supplement of paper PMC8728848
